# Assay results: PubChem BioAssay AID1347120 (National Center for Advancing Translational Sciences (NCATS), 2019)
# In all, about 390,000 compounds went through this assay and about 930 (0.24%) were called active. The inconclusive results got no clear call from the source; some entries with a clear call stand among them for comparison. Calls come from the whole dose curve; as a rule, active = well fitted activation curve with a large enough effect; inconclusive = small, poorly fitted or top-dose-only effect; inactive = no such curve, though single readings can be large or run the other way. Where the call is inconclusive, the potency comes from a doubtful curve fit.
# Assay: qHTS for Suppressors of FUS Proteinopathy: Primary screen using FUS-linked yeast assay; note: nearly all actives have a fitted effect of over 55% in size
# Conditions: S. cerevisiae FUS-expressing, OD600, 24 h; Potency: growth rescue; series mostly up to 76.6 µM
# How it was run: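 Absorbance at 600 nm, taken 24hr after compound addition, measured rescue of FUS-yeast growth at 30C. Induction used 2% galactose with seeding at OD 0.005. Controls: CP55940 from 92uM final, DMSO only.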
# Potency is the fitted concentration of half-maximal effect; tags give direction and shape of the fitted curve.
row,Compound,Potency
1,CCOC(=O)CCP(=O)(O)C(O)c1ccc(OC)cc1 (centres undefined),"inconclusive: 50.1 µM [activator, single point]"
2,COc1ccc(CCNC(=O)c2nn(C)c3c2CSc2ccccc2-3)cc1OC,inactive
3,CCC(SC1=Nc2ccccc2C2=NC(CC(C)C)C(=O)N12)C(=O)Nc1ccc2c(c1)OCO2 (centres undefined),"inconclusive: 31.6 µM [activator, single point]"
4,Cc1noc(C)c1NC(=O)Nc1ccc2c(c1)C(=O)N([C@H](C)CO)C[C@H](C)[C@@H](CN(C)S(=O)(=O)c1ccc(Cl)cc1)OCCCC[C@@H](C)O2,"inconclusive: 28.2 µM [activator, single point]"
5,CCOC(=O)c1c(NC(=O)C(C)Sc2c[nH]c3ccccc23)sc2c1CCC2 (centres undefined),"inconclusive: 28.2 µM [activator, single point]"
6,COc1ccccc1NC(=O)CSC1=NC(=O)C(NC(C)=O)C(=O)N1 (centres undefined),inactive
7,CNC(=O)c1ccc(Nc2nnc(-c3ccc(C)c(S(=O)(=O)N4CCOCC4)c3)c3ccccc23)cc1,inactive
8,Cc1ccc(NC(=O)CCc2c(C)nc3nc(C)nn3c2C)c(Cl)c1,inactive
9,COC(=O)C[C@H]1C=C[C@H](NC(=O)C2CCOCC2)[C@@H](CO)O1,inactive
10,O=C(Cc1cccs1)N(Cc1cccs1)C1(C(=O)NC2CCCC2)CCCCC1,inactive
11,COc1cc(CN2CCN(C(=O)c3ccc(-c4ccccc4)cc3)CC2)cc(OC)c1OC,inactive
12,COc1ccc(OC)c(CNC(=O)CN2C(=O)CCn3nc(-c4cn(C)c5ccccc45)cc32)c1,"inconclusive: 31.6 µM [activator, single point]"
13,Cc1cc(=O)oc2cc(O)cc(O)c12,inactive
14,CC1C(=O)N(Cc2cn(CCC3OCCO3)nn2)CCS(=O)(=O)N1Cc1ccc(-c2ccc(Cl)c(Cl)c2)cc1 (centres undefined),"inconclusive: 28.2 µM [activator, single point]"
15,COc1ccc(-n2c(SCC(=O)Nc3ccccc3-c3ccccc3)nnc2-c2ccccn2)cc1,"inconclusive: 8.91 µM [activator, partial curve]"
16,O=C(OCC(=O)N1CCN(C(=O)c2ccco2)CC1)c1cc(-c2ccco2)nc2ccccc12,"inconclusive: 15.8 µM [activator, partial curve, poor fit]"
17,Cc1ccc(N2CC(NC(=O)CCc3ccccc3)CC2=O)cc1 (centres undefined),inactive
18,COc1ccccc1C(=O)Nc1ccc(C(=O)OCc2cc(=O)n3ccsc3n2)cc1,inactive
19,COc1ccc(CN(C(=O)Cc2c[nH]c3ccccc23)C(C(=O)NC2CCCCC2)c2ccc(C)o2)cc1 (centres undefined),inactive
20,Nc1nc(-c2ccccc2)c(-c2ccccc2)s1,inactive
21,CC(C)(C)OC(=O)CNC(=O)c1[nH]cnc1C(=O)NCC(=O)OCc1ccccc1,"inconclusive: 25.1 µM [activator, partial curve, poor fit]"
22,COc1ccc(CN(C)C(=O)CCc2ccc(S(=O)(=O)N3CCCCCC3)cc2)c(OC)c1,"inconclusive: 20 µM [activator, partial curve]"

row,Compound,Potency
1,O=C(CCc1ccccc1)N[C@H]1[C@H](OCc2ccccc2)CCC[C@@]12C(=O)N(Cc1ccccc1)c1ccc(-c3cnccn3)cc12,"inconclusive: 22.4 µM [activator, partial curve, poor fit]"
2,CC1=C(C(=O)Nc2ccccc2)C(c2cccc(Cl)c2)n2nc(SCC(=O)c3ccc(C)cc3)nc2N1 (centres undefined),inactive
3,COc1ccc(-n2c(Cc3cccn3C)nnc2SCC(=O)N2CCCc3ccccc32)cc1,"inconclusive: 39.8 µM [activator, partial curve, poor fit]"
4,C=CCN1C(=O)[C@@H](CC(=O)NCCc2ccccc2OC)[C@]2(C(=O)OCC)CCCCC/C=C/12,"inconclusive: 31.6 µM [activator, partial curve, poor fit]"
5,O=C(Nc1nc2n(n1)C(c1ccc(Cl)cc1)CC(c1ccc(Cl)cc1)N2)c1ccco1 (centres undefined),"inconclusive: 35.5 µM [activator, single point]"
6,COc1ccc(OCC(=O)OCc2cc(=O)n3nc(C4CC4)sc3n2)cc1,inactive
7,COc1ccccc1CNC(=O)c1ccc(-c2nc(CS(=O)(=O)c3ccc(C)cc3)c(C)o2)cc1,inactive
8,CC(=O)N1CCc2c(sc3c2c(=O)n(-c2cc(Cl)ccc2C)c(=O)n3Cc2ccccc2F)C1,"inconclusive: 22.4 µM [activator, partial curve, poor fit]"
9,COc1ccc(S(=O)(=O)/N=C2\C=C(Nc3ccc(O)cc3)C(=O)c3ccccc32)cc1,inactive
10,CC(C)CC(=O)Nc1ccccc1OCc1cc(=O)n2ccccc2n1,inactive
11,COc1ccc(/C=C/C(=O)OCc2cc(=O)n3c(n2)sc2ccccc23)cc1,"inconclusive: 25.1 µM [activator, partial curve, poor fit]"
12,Cc1ccc(S(=O)(=O)C2(C(=O)N3CCN(c4cc(C)ccc4C)CC3)CC2)cc1,"inconclusive: 28.2 µM [activator, single point]"
13,CCOC(=O)C1=C(CSc2nc(-c3ccccc3)ccc2C#N)OC(N)=C(C#N)C1c1cccnc1 (centres undefined),"inconclusive: 35.5 µM [activator, single point]"
14,CC(C)CC1Nc2ccc(C(=O)NCCCN3CCCCC3C)cc2NC1=O (centres undefined),"inconclusive: 6.31 µM [activator, partial curve]"
15,COC(=O)c1cc(Cl)ccc1NC(=O)CSc1ncc(S(=O)(=O)c2ccc(Br)cc2)c(=O)[nH]1,"inconclusive: 31.6 µM [activator, single point]"
16,CC(C)CCNC(=O)C(c1ccc(O)cc1)N(Cc1cccs1)C(=O)C1COc2ccccc2O1 (centres undefined),"inconclusive: 14.1 µM [activator, partial curve]"
17,CC(C)(C)c1ccc(-c2nnc(SCc3cccc4ccccc34)n2Cc2ccco2)cc1,"inconclusive: 12.6 µM [activator, partial curve, poor fit]"
18,NNC(=O)C1=NOC(CNc2ncc(C(F)(F)F)cc2Cl)C1 (centres undefined),"inconclusive: 31.6 µM [activator, single point]"
19,Cc1ccc(CNC(=O)CSc2ncc3c(n2)-c2ccc(Cl)cc2N(Cc2ccccc2)S3(=O)=O)cc1,inactive
20,Cc1ccc(NC(=O)CCCn2c(=O)c3cccn3c3cccnc32)cc1C,inactive
21,Cc1ccc(C)c(NC(=O)CSc2nnc(-c3cc4occc4n3C)n2-c2ccccc2C)c1,"inconclusive: 28.2 µM [activator, single point]"
22,COC(=O)C[C@H]1CC[C@@H]2[C@@H](COc3ccc(NC(=O)Nc4ccccc4OC)cc3C(=O)N2C)O1,inactive

row,Compound,Potency
1,COC(=O)[C@H](CCSC)NC(=O)Cn1cnc(C(=O)Nc2ccc(C)c(C)c2)n1,inactive
2,CCCCCC(=O)Nc1cccc(C2=NOC3(C2)C[C@@H](C(N)=O)N(C(=O)c2cc([N+](=O)[O-])cc([N+](=O)[O-])c2C)C3)c1 (some centres undefined),"inconclusive: 31.6 µM [activator, single point]"
3,CCC(C)NC(=O)c1ccccc1-c1ccccc1C(=O)NC(C)CC (centres undefined),"inconclusive: 17.8 µM [activator, single point]"
4,CCOc1ccccc1C(=O)OCC(=O)Nc1ccc(N2CCCCC2)cc1,"inconclusive: 44.7 µM [activator, partial curve, poor fit]"
5,Cc1cc2nccc(-c3ccc(Cl)cc3Cl)n2n1,inactive
6,O=C(CSc1nnc(-c2cccs2)n1Cc1ccco1)Nc1ccc(Oc2ccccc2)cc1,inactive
7,COc1ccc(-c2csc3ncnc(N4CCN(c5cccc(C)c5C)CC4)c23)cc1,inactive
8,Cc1cc(Br)ccc1NC(=O)CCCOc1cc(=O)n(C)c2ccccc12,"inconclusive: 50.1 µM [activator, single point]"
9,Cn1cc(C(=O)C(=O)NC2CC2)c2ccccc21,"inconclusive: 50.1 µM [activator, single point]"
10,C=CC[C@@H](CC(=O)N(CCO)Cc1ccccc1)C(=O)N[C@H](COC(=O)[C@H](CC=C)CC(=O)OC(C)(C)C)Cc1c[nH]c2ccccc12,"inconclusive: 12.6 µM [activator, partial curve, poor fit]"
11,COc1cccc2cc(-c3nc(Nc4cccc(C)c4C)sc3C)c(=O)oc12,"inconclusive: 35.5 µM [activator, single point]"
12,CCOC(=O)c1ccc(N2C(=O)c3n[nH]c(-c4cccs4)c3C2c2ccc(CC)cc2)cc1 (centres undefined),"inconclusive: 7.08 µM [activator, partial curve, poor fit]"
13,Cc1cc(/C=N/n2c(COc3ccccc3)nc3ccccc3c2=O)c(O)c([N+](=O)[O-])c1,"inconclusive: 31.6 µM [activator, single point]"
14,COc1ccc(N(C(=O)c2snc(C(N)=O)c2N)C(C(=O)NC2CCCCC2)c2ccc(C)o2)c(OC)c1 (centres undefined),"inconclusive: 39.8 µM [activator, single point]"
15,COc1ccc(CN2CCN(C(=O)c3cccc4ccccc34)CC2)cc1Br,inactive
16,COc1ccc(/C(C)=N/NC(=O)c2ccccc2OCc2ccccc2)c(OC)c1,"inconclusive: 8.91 µM [activator, single point]"
17,COc1cc2c(cc1[N+](=O)[O-])-c1ccc([N+](=O)[O-])cc1C2=NO,inactive
18,Fc1ccc(CNC(=S)Nc2ccc(Cl)cc2)cc1,inactive
19,COc1ccc(-n2cc(-c3ccc4c(c3)OCO4)n(CC(=O)Nc3cccc(C)c3C)c2=O)c(OC)c1,"inconclusive: 28.2 µM [activator, single point]"
20,CC(C)(C)NC(=O)CN(C(=O)c1snc(C(=O)NC2CCCCC2)c1N)c1ccccc1F,"inconclusive: 12.6 µM [activator, partial curve]"
